Reference: the antibiotic and cytotoxicity screens of Wong et al. (2023)
The list shows a part of the results.

Test system: HepG2
Test: cytotoxicity call (relative viability < 0.9)
Settings: 10 µM

SMILES	cytotoxicity call
C[C@H]1CCCCO[C@H](CN(C)S(=O)(=O)c2cccs2)[C@@H](C)CN([C@@H](C)CO)C(=O)c2cc(NC(=O)Nc3ccc(C(F)(F)F)cc3)ccc2O1	inactive
CN(C)CCC=C1c2ccccc2Sc2ccc(Cl)cc21.Cl	active
COc1ccccc1C(=O)Nc1ccc2c(c1)C(=O)N(C)[C@H]1CC[C@H](CC(=O)Nc3cccc(C(C)C)c3)O[C@@H]1CO2	inactive
C[C@H]1CN([C@@H](C)CO)C(=O)Cc2cc(NS(C)(=O)=O)ccc2O[C@@H]1CN(C)S(=O)(=O)c1ccc(Cl)cc1	inactive
O=C(O)CCCCCCC(=O)Nc1ccc([C@@H]2O[C@@H](CSCCO)C[C@H](c3ccccc3)O2)cc1	inactive
O=C(C[C@@H]1CC[C@@H]2[C@H](COC[C@@H](O)CN2S(=O)(=O)c2ccc(Cl)cc2)O1)N[C@H]1CCN(Cc2ccccc2)C1	inactive
COc1ccc(NC(=O)Nc2ccc3c(c2)C(=O)N([C@@H](C)CO)C[C@@H](C)[C@@H](CN(C)C(=O)CCC(F)(F)F)OCCCC[C@H](C)O3)cc1	inactive
C[C@@H]1CCCCO[C@@H](CN(C)CC2CCCCC2)[C@@H](C)CN([C@H](C)CO)C(=O)c2cc(NC(=O)CCC(F)(F)F)ccc2O1	inactive
COCC(=O)N(C)C[C@@H]1Oc2cc(C#CCC3CCCC3)ccc2S(=O)(=O)N([C@H](C)CO)C[C@@H]1C	inactive
C[C@@H]1CN([C@H](C)CO)C(=O)c2cc(C#CCN(C)C)cnc2O[C@H]1CN(C)C(=O)Nc1cccc(F)c1	inactive

Test system: S. aureus RN4220
Test: growth inhibition call (relative growth <= 0.2)
Settings: 50 µM

SMILES	growth inhibition call
C[C@@]12CCC[C@](C)(C(=O)O[C@@H]3O[C@H](CO)[C@@H](O)[C@H](O)[C@H]3O)[C@@H]1CC[C@]13C[C@H](CC[C@@H]12)[C@](O)(CO)C3	inactive
COCC#Cc1ccc2c(c1)O[C@@H](CN(C)C(=O)Nc1ccccc1F)[C@H](C)CN([C@H](C)CO)S2(=O)=O	inactive
C[C@@H]1CCCCO[C@H](CN(C)C(=O)c2ccncc2)[C@H](C)CN([C@@H](C)CO)C(=O)c2cc(NC(=O)NC3CCCCC3)ccc2O1	inactive
C[C@@H]1CN([C@H](C)CO)C(=O)Cc2cc(NS(=O)(=O)c3cccs3)ccc2O[C@@H]1CN(C)S(=O)(=O)c1cccs1	inactive
CO[C@H]1CN(C)C(=O)c2cc(NC(=O)Nc3cccc(F)c3)ccc2OC[C@H](C)N(C(=O)Nc2c(C)noc2C)C[C@@H]1C	inactive
C[C@@H]1CCCCO[C@H](CN(C)C(=O)Nc2ccc(C(F)(F)F)cc2)[C@@H](C)CN([C@H](C)CO)C(=O)c2cc(N(C)C)ccc2O1	inactive
O=C(C1=C[C@@H](c2ccc(C(F)(F)F)cc2)C[C@@H](OCc2ccc(CO)cc2)O1)N1CCN(Cc2ccc3c(c2)OCO3)CC1	inactive
C[C@H]1CN([C@@H](C)CO)C(=O)Cc2cc(NS(=O)(=O)c3cn(C)cn3)ccc2O[C@H]1CN(C)S(=O)(=O)c1ccc(Cl)cc1	inactive
COc1cc(C)c2c(=O)c(-c3ccccc3)coc2c1	inactive
C[C@H](CO)N1C[C@H](C)[C@@H](CN(C)C(=O)c2ccncc2)Oc2cc(C#CC3(O)CCCC3)ccc2S1(=O)=O	inactive
C[C@@H]1CN([C@H](C)CO)C(=O)c2c(c3ccccc3n2C)-c2ccccc2CO[C@@H]1CN(C)Cc1cccc(O)c1	inactive
CC(C)NC(=O)Nc1ccc2c(c1)C(=O)N(C)[C@H]1CC[C@@H](CC(=O)NCc3ccc(F)cc3)O[C@H]1CO2	inactive
COc1ccc(S(=O)(=O)N(C)C[C@@H]2OCCCC[C@H](C)Oc3ccc(NC(=O)Nc4cccc5ccccc45)cc3C(=O)N([C@H](C)CO)C[C@H]2C)cc1	inactive
O=C(O)CCNC(=O)c1ccccc1	inactive
C[C@H]1CN([C@@H](C)CO)C(=O)c2cc(NC(=O)Cc3cn(C)c4ccccc34)ccc2O[C@H]1CN(C)Cc1ccc(C(F)(F)F)cc1	inactive
C[C@@H]1CN([C@@H](C)CO)C(=O)c2cc(NS(=O)(=O)c3ccc(F)cc3)ccc2O[C@@H]1CN(C)Cc1ccc(Oc2ccccc2)cc1	inactive
C[C@H](CO)N1C[C@H](C)[C@H](CN(C)S(=O)(=O)c2ccc(F)cc2)Oc2c(NC(=O)C3CCOCC3)cccc2C1=O	inactive
Cc1cn([C@H]2C[C@H](N=[N+]=[N-])[C@@H](CO)O2)c(=O)[nH]c1=O	inactive
Nc1cnc(Cl)cn1	inactive
Oc1ccnc(S)n1	inactive

SMILES	growth inhibition call
Cc1noc(C)c1NC(=O)N(C)C[C@@H]1Oc2ncc(C#CCC(C)C)cc2C(=O)N([C@H](C)CO)C[C@@H]1C	inactive
C[C@@H]1CN([C@@H](C)CO)C(=O)c2cccc(NC(=O)c3ccc(-c4nccs4)cc3)c2O[C@@H]1CN(C)S(=O)(=O)c1cn(C)cn1	inactive
C[C@H]1CN([C@@H](C)CO)C(=O)c2c(c3ccccc3n2C)-c2ccccc2CO[C@H]1CN(C)Cc1ccc(O)cc1	inactive
COc1ccc(NC(=O)N(C)C[C@H]2Oc3ccc(NC(=O)Nc4ccc(C(F)(F)F)cc4)cc3CC(=O)N([C@H](C)CO)C[C@@H]2C)cc1	inactive
Cc1ccc(S(=O)(=O)N(C)C[C@H]2OCCCC[C@H](C)Oc3ccc(NC(=O)Nc4c(C)noc4C)cc3C(=O)N([C@@H](C)CO)C[C@H]2C)cc1	inactive
C[C@H]1CCN=C(N)S1	inactive
C[C@@H](NC(=O)C[C@H]1C=C[C@H](NC(=O)CN2CCOCC2)[C@@H](CO)O1)c1ccccc1	inactive
C=CCOC(=O)[C@@H]1[C@H]2C(=O)O[C@H](c3ccccc3)[C@H](c3ccccc3)N2[C@H](c2ccc(OCCOC(=O)[C@@H]3C[C@@H]4C(=O)N5CCC[C@H]5C(=O)N4[C@@H]3c3ccc(O)cc3)cc2)[C@@]12C(=O)Nc1ccc(I)cc12	inactive
Cc1ccccc1S(=O)(=O)N1[C@@H]2c3cccc(=O)n3C[C@H]1[C@H](CO)[C@H]2C(=O)N1CCOCC1	inactive
CCOc1ccc(Nc2nc3c(=O)nc[nH]c3n2[C@H]2O[C@@H](CO)[C@@H](O)[C@@H]2O)cc1	inactive
C[C@H]1CCCCO[C@H](CN(C)S(=O)(=O)c2cccs2)[C@@H](C)CN([C@@H](C)CO)C(=O)c2cc(NC(=O)Nc3ccc(C(F)(F)F)cc3)ccc2O1	inactive
CN(C)CCC=C1c2ccccc2Sc2ccc(Cl)cc21.Cl	inactive
COc1ccccc1C(=O)Nc1ccc2c(c1)C(=O)N(C)[C@H]1CC[C@H](CC(=O)Nc3cccc(C(C)C)c3)O[C@@H]1CO2	inactive
C[C@H]1CN([C@@H](C)CO)C(=O)Cc2cc(NS(C)(=O)=O)ccc2O[C@@H]1CN(C)S(=O)(=O)c1ccc(Cl)cc1	inactive
O=C(O)CCCCCCC(=O)Nc1ccc([C@@H]2O[C@@H](CSCCO)C[C@H](c3ccccc3)O2)cc1	inactive
O=C(C[C@@H]1CC[C@@H]2[C@H](COC[C@@H](O)CN2S(=O)(=O)c2ccc(Cl)cc2)O1)N[C@H]1CCN(Cc2ccccc2)C1	inactive
COc1ccc(NC(=O)Nc2ccc3c(c2)C(=O)N([C@@H](C)CO)C[C@@H](C)[C@@H](CN(C)C(=O)CCC(F)(F)F)OCCCC[C@H](C)O3)cc1	inactive
C[C@@H]1CCCCO[C@@H](CN(C)CC2CCCCC2)[C@@H](C)CN([C@H](C)CO)C(=O)c2cc(NC(=O)CCC(F)(F)F)ccc2O1	inactive
COCC(=O)N(C)C[C@@H]1Oc2cc(C#CCC3CCCC3)ccc2S(=O)(=O)N([C@H](C)CO)C[C@@H]1C	inactive
C[C@@H]1CN([C@H](C)CO)C(=O)c2cc(C#CCN(C)C)cnc2O[C@H]1CN(C)C(=O)Nc1cccc(F)c1	inactive
